# From the supplement of paper PMC9446081
# About 220 (0.56%) of roughly 39,000 compounds showed activity. Some of the results follow.
# Tested on: Escherichia coli K-12 BW25113
# Assay: relative growth (OD600 normalised to plate interquartile mean) (fraction); higher = less growth inhibition, active = 0.2 or less
# Details: 50 µM; LB; incubation time: overnight (16-24 h)
# 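Further: static incubation at 37 °C against the wild-type strain, values averaged over two biological replicates.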
row,Compound,relative growth
1,COc1ccc(NC(=O)Nc2ccc3c(c2)C(=O)N([C@@H](C)CO)C[C@H](C)[C@@H](CN(C)Cc2ccc(C(F)(F)F)cc2)OCCCC[C@@H](C)O3)cc1,inactive: 0.987
2,C[C@H]1CN([C@@H](C)CO)C(=O)c2cc(C#Cc3cccnc3)cnc2O[C@H]1CN(C)S(C)(=O)=O,inactive: 1.04
3,C[C@H](CO)N1C[C@H](C)[C@@H](CN(C)S(=O)(=O)c2ccccc2)Oc2ccc(NC(=O)CCC(F)(F)F)cc2CC1=O,inactive: 1.02
4,CN1C(=O)c2cc(NS(=O)(=O)c3cccc(F)c3)ccc2OC[C@H]2O[C@H](CC(=O)NCCN3CCCCC3)CC[C@H]21,inactive: 0.983
5,O=C(C[C@@H]1C[C@@H]2c3cc(NC(=O)C4CCOCC4)ccc3O[C@@H]2[C@@H](CO)O1)NCc1ccc2c(c1)OCO2,inactive: 1.02
6,COc1cccc(S(=O)(=O)N(C)C[C@@H]2Oc3cc(C4=CCCC4)ccc3S(=O)(=O)N([C@@H](C)CO)C[C@@H]2C)c1,inactive: 1.03
7,C[C@H]1CN([C@@H](C)CO)C(=O)CCCn2cc(nn2)CO[C@@H]1CN(C)C(=O)Nc1ccc2c(c1)OCO2,inactive: 0.986
8,C[C@@H]1CN([C@H](C)CO)C(=O)c2cccc(NC(=O)Nc3ccc(C(F)(F)F)cc3)c2O[C@@H]1CN(C)Cc1ccncc1,inactive: 0.972
9,COc1ccc(S(=O)(=O)Nc2ccc3c(c2)C(=O)N([C@@H](C)CO)C[C@@H](C)[C@H](CN(C)CC2CC2)O3)cc1,inactive: 1.02
10,C[C@H](CO)N1C[C@H](C)[C@@H](CN(C)C(=O)Nc2ccccc2)Oc2c(NC(=O)CCCCCC(=O)Nc3ccccc3N)cccc2C1=O,inactive: 1
11,COc1ccccc1CNC(=O)C[C@H]1C[C@H]2c3cc(NC(=O)Nc4ccc(C(F)(F)F)cc4)ccc3O[C@H]2[C@H](CO)O1,inactive: 0.981
12,NC(=S)CN1CCCC1=O,inactive: 1.03
13,C[C@H]1CN([C@@H](C)CO)C(=O)CCCn2nncc2CO[C@@H]1CN(C)C(=O)Nc1ccc(N2CCCCC2)cc1,inactive: 1
14,O=C(N[C@@H]1CC[C@@H](CCNS(=O)(=O)c2ccccc2)O[C@@H]1CO)c1cnccn1,inactive: 1.01
15,C[C@@H]1CCCCO[C@@H](CN(C)C(=O)Nc2ccc3c(c2)OCO3)[C@@H](C)CN([C@@H](C)CO)C(=O)c2cc(NC(=O)NC3CCCCC3)ccc2O1,inactive: 1
16,C[C@@H]1CN([C@H](C)CO)C(=O)c2cccc(NC(=O)CCCCCC(=O)Nc3ccccc3N)c2O[C@H]1CN(C)Cc1ccc(Oc2ccccc2)cc1,inactive: 1.01
17,COCC(=O)N1CC[C@@H](O)[C@@H]1Cc1cnn(C)c1,inactive: 0.953
18,COc1ccc(S(=O)(=O)N(C)C[C@@H]2OCCCC[C@@H](C)Oc3ccc(NC(=O)CCC(F)(F)F)cc3C(=O)N([C@@H](C)CO)C[C@H]2C)cc1,inactive: 1.01
19,OC[C@@H]1CC[C@@H]2O[C@H](CCc3ccc(C#CCc4ccccc4)cc3)[C@@H](n3cc(-c4ccccc4)nn3)C[C@@H]2O1,inactive: 1.01
20,O=C(O)C=CC=Cc1ccc2c(c1)OCO2,inactive: 0.963
21,N/N=C(\C(=O)O)c1ccccc1N,inactive: 1.02

row,Compound,relative growth
1,C[C@@H]1CN([C@@H](C)CO)C(=O)c2cc(NC(=O)Cn3cnnn3)ccc2O[C@@H]1CN(C)CC1CC1,inactive: 1.05
2,C[C@@H]1CN([C@H](C)CO)C(=O)c2cc(NS(=O)(=O)c3cccs3)ccc2O[C@@H]1CN(C)Cc1ccc(Cl)c(Cl)c1,inactive: 0.99
3,COc1ccc(S(=O)(=O)N(C)C[C@H]2OCCCC[C@@H](C)Oc3ccc(NC(=O)Nc4cccc5ccccc45)cc3C(=O)N([C@H](C)CO)C[C@@H]2C)cc1,inactive: 0.992
4,C[C@@H]1CN([C@H](C)CO)C(=O)c2c(c3ccccc3n2C)-c2ccccc2CO[C@H]1CN(C)Cc1ccc(Oc2ccccc2)cc1,inactive: 1.02
5,CN(C)c1cc[n+](C(=O)N2CCOCC2)cc1,inactive: 0.979
6,Cc1noc(C)c1NC(=O)N(C)C[C@H]1Oc2c(NC(=O)NC(C)C)cccc2C(=O)N([C@@H](C)CO)C[C@H]1C,inactive: 1.03
7,COCC(=O)N1C[C@@H](C)[C@@H](OC)CN(C)C(=O)c2ccc(NC(=O)c3ccc(OC)cc3)cc2OC[C@@H]1C,inactive: 0.992
8,NNC(=O)c1ccc(/C=N\O)nc1,inactive: 0.975
9,CO[C@H]1CN(C)C(=O)c2cc(NC(=O)C3CC3)ccc2OC[C@H](C)N(C(=O)CN2CCOCC2)C[C@H]1C,inactive: 0.988
10,O=c1cc(CO)occ1O,inactive: 1.02
11,CO[C@H]1CN(C)C(=O)c2cc(NS(=O)(=O)CC(F)(F)F)ccc2OC[C@H](C)N(Cc2ccccn2)C[C@@H]1C,inactive: 1.02
12,CO[C@@H]1CN(C)C(=O)c2cc(NC(=O)C3CC3)ccc2OC[C@H](C)N(C(=O)CN2CCOCC2)C[C@H]1C,inactive: 0.979
13,COc1ccc(S(=O)(=O)N(C)C[C@@H]2Oc3cc(C#CC4CC4)ccc3S(=O)(=O)N([C@H](C)CO)C[C@H]2C)cc1,inactive: 1.02
14,C[C@@H]1CCCCO[C@H](CN(C)S(=O)(=O)c2ccccc2)[C@@H](C)CN([C@@H](C)CO)C(=O)c2cc(NC(=O)Nc3ccccc3)ccc2O1,inactive: 1.03
15,N=C(C[n+]1ccccc1)NO,inactive: 1.05
16,CN1C(=O)c2cc(NC(=O)C3CCC3)ccc2OC[C@@H]2O[C@H](CC(=O)NCCc3ccncc3)CC[C@H]21,inactive: 1.05
17,C[C@@H]1CN([C@H](C)CO)C(=O)c2c(c3ccccc3n2C)-c2ccccc2CO[C@@H]1CN(C)C(=O)Nc1ccc2c(c1)OCO2,inactive: 0.991
18,C[C@@H]1CN([C@@H](C)CO)C(=O)c2cccc(NC(=O)C3CC3)c2O[C@H]1CN(C)S(=O)(=O)c1ccc(Cl)cc1,inactive: 0.979
19,Cc1noc(C)c1NC(=O)N(C)C[C@H]1Oc2c(NS(=O)(=O)c3ccccc3)cccc2C(=O)N([C@@H](C)CO)C[C@@H]1C,inactive: 1.01
20,C[C@@H]1CCCCO[C@H](CN(C)Cc2ccc(Cl)c(Cl)c2)[C@@H](C)CN([C@@H](C)CO)C(=O)c2cc(NC(=O)Nc3cccc4ccccc34)ccc2O1,inactive: 1.06
21,COc1ccc(C(=O)Nc2cccc(CN3C(=O)[C@]4(O[C@H](CC(=O)N5CCC[C@H]5CO)[C@@H]([Si](C)(C)c5ccc(OC)cc5)[C@@H]4C)c4ccccc43)c2)cc1,inactive: 1.03

row,Compound,relative growth
1,C[C@@H]1CN([C@H](C)CO)C(=O)c2cc(NS(=O)(=O)c3ccccc3)ccc2O[C@@H](C)CCCCO[C@H]1CN(C)Cc1ccc(C(F)(F)F)cc1,inactive: 1.07
2,C[C@@H]1CCCCO[C@@H](CN(C)CC2CCCCC2)[C@H](C)CN([C@@H](C)CO)C(=O)c2cc(NS(=O)(=O)c3ccc(Cl)cc3)ccc2O1,inactive: 0.979
3,O=C(C[C@H]1CC[C@@H]2[C@H](COC[C@H](O)CN2C(=O)Nc2cccc(Cl)c2)O1)NCCCN1CCOCC1,inactive: 1.01
4,NCc1ccccc1-c1ccco1,inactive: 0.983
5,C[C@@H]1CN([C@H](C)CO)C(=O)Cc2cc(NC(=O)CCC(F)(F)F)ccc2O[C@H]1CN(C)S(=O)(=O)c1ccccc1,inactive: 1.01
6,COc1cccc(-c2ccc3c(c2)O[C@H](CN(C)Cc2cncnc2)[C@H](C)CN([C@@H](C)CO)S3(=O)=O)c1,inactive: 0.977
7,Nc1ccn([C@H]2C[C@H](O)[C@@H](CO)O2)c(=O)n1,inactive: 0.996
8,C[C@@H]1CN([C@@H](C)CO)S(=O)(=O)c2ccc(C#Cc3ccc(F)cc3)cc2O[C@@H]1CN(C)C(=O)CN(C)C,inactive: 1.02
9,Cn1nnnc1S[C@H]1CCNC1,inactive: 0.996
10,C[C@H](CO)N1C[C@H](C)[C@H](CN(C)S(C)(=O)=O)Oc2ccc(NS(=O)(=O)c3cccs3)cc2C1=O,inactive: 0.996
11,CC(C)NC(=O)Nc1ccc2c(c1)C(=O)N([C@@H](C)CO)C[C@H](C)[C@@H](CN(C)S(=O)(=O)c1cn(C)cn1)OCCCC[C@H](C)O2,inactive: 0.997
12,NCCCCCC(O)(P(=O)(O)O)P(=O)(O)O,inactive: 0.974
13,CCS(=O)(=O)Nc1ccc2c(c1)C(=O)N(C)[C@H]1CC[C@@H](CC(=O)NCc3ccccc3F)O[C@@H]1CO2,inactive: 0.966
14,COc1ccc2c3c(n(c2c1)C)[C@@H](CO)N(CC1CCCC1)C[C@]13CCN(CC1)C(=O)Nc1ccccc1,inactive: 0.984
15,C=CCOC(=O)[C@H]1[C@@H]2C(=O)O[C@@H](c3ccccc3)[C@@H](c3ccccc3)N2[C@@H](c2ccc(OCCOC(=O)[C@@H]3C[C@@H]4C(=O)N[C@@H](CC(C)C)C(=O)N4[C@@H]3c3ccc(O)cc3)cc2)[C@]12C(=O)Nc1ccc(I)cc12,inactive: 1.05
16,COc1ccc(NC(=O)N(C)C[C@@H]2OCCCC[C@@H](C)Oc3ccc(NC(=O)NC4CCCCC4)cc3C(=O)N([C@H](C)CO)C[C@H]2C)cc1,inactive: 0.945
17,CO[C@@H]1CN(C)C(=O)c2ccc(NC(=O)CC(F)(F)F)cc2OC[C@H](C)N(C(=O)C2CCOCC2)C[C@H]1C,inactive: 1.04
18,O=C(C[C@H]1C=C[C@@H](NS(=O)(=O)c2ccc(F)cc2)[C@@H](CO)O1)NCc1ccc(Cl)c(Cl)c1,inactive: 0.958
19,CCS(=O)(=O)N1C[C@]2(CN(Cc3cccc(c3)Cl)[C@H](CO)c3c2c2ccc(cc2n3C)OC)C1,inactive: 1.07
20,C[C@@H]1CN([C@H](C)CO)C(=O)c2cc(NC(=O)Cn3cnnn3)ccc2O[C@H]1CN(C)Cc1ccc(C(=O)O)cc1,inactive: 0.991
